The whole screen tested about 5,600 compounds, of which about 1,200 (21%) were called active. The inconclusive results got no clear call from the source; some entries with a clear call stand among them for comparison.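 The calls were made as follows: active = mean inhibition above about 95%, with at least 55% of replicates also reaching it (limit read from the data); inconclusive = meets just one of the two conditions; inactive = meets neither condition.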
Assay: Trypanosoma cruzi growth blockers in host fibroblasts – NIH3T3 host cells, beta-gal parasites, cherry-pick, set 2, confirmation (AID 651740);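 also: plate controls were neutral control median for no effect and positive control median for full effect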
Settings: T. cruzi beta-gal in NIH3T3, GalScreen luminescence, 90 h; at 2.09 µM; hits give high values
Procedure, shortened: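 Test system: mouse NIH/3T3 fibroblasts infected with beta-galactosidase T. cruzi Tulahuen C4; Probe or stimulus: 5000 trypomastigotes per well; Measured by: GalScreen luminescence (substrate 1:25 in Buffer B) after cell lysis; Incubation: 3 h host cell attachment, then ≥90 h compound-parasite co-culture, 60 min GalScreen; Dosing: single point, 100 nL compound in DMSO pinned per well.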

Row | SMILES | inhibition
1 | CN1c2ccc(-c3ccccc3F)cc2[C@@H]2[C@@H](CCN2S(=O)(=O)c2ccc(F)cc2)[C@@H]1CO | inconclusive: 95.7%
2 | Cc1ccc(S(=O)(=O)N(C)C[C@H]2OCCCC[C@@H](C)Oc3ccc(NC(=O)NC4CCCCC4)cc3C(=O)N([C@H](C)CO)C[C@H]2C)cc1 | inconclusive: 95.9%
3 | O=C(c1cccc(F)c1)N1CCCCN2[C@H](CO)[C@@H](c3ccc(-c4ccc(F)cc4)cc3)[C@@H]2C1 | inconclusive: 95.5%
4 | C[C@@H]1CCCCO[C@@H](CN(C)C(=O)Nc2cccc3ccccc23)[C@H](C)CN([C@H](C)CO)C(=O)c2cc(NC(=O)c3ccccc3)ccc2O1 | inconclusive: 97%
5 | CNC[C@@H]1Oc2ncc(C#CCC3CCCC3)cc2C(=O)N([C@H](C)CO)C[C@H]1C | inconclusive: 97.6%
6 | C[C@H](CO)N1C[C@H](C)[C@@H](CN(C)Cc2cncnc2)Oc2cc(-c3ccncc3)ccc2S1(=O)=O | inconclusive: 97.5%
7 | C[C@H](CO)N1C[C@H](C)[C@H](CN(C)S(=O)(=O)c2ccc(Cl)cc2)OCCCC[C@H](C)Oc2ccc(NS(=O)(=O)c3ccccc3)cc2C1=O | inactive: 86.5%
8 | C[C@H]1CN([C@@H](C)CO)S(=O)(=O)c2ccc(C#Cc3ccccc3)cc2O[C@H]1CN(C)S(=O)(=O)c1ccccc1F | inconclusive: 97.3%
9 | COc1ccc(S(=O)(=O)N2CCCCN3[C@H](CO)[C@H](c4ccc(C#CCC(C)C)cc4)[C@@H]3C2)cc1 | inconclusive: 96.6%
10 | CC(C)NC(=O)N1CCCCN2[C@H](CO)[C@H](c3ccc(C4=CCCC4)cc3)[C@@H]2C1 | active: 106%
11 | Cc1ccc(S(=O)(=O)N(C)C[C@H]2Oc3c(cccc3N(C)C)C(=O)N([C@H](C)CO)C[C@@H]2C)cc1 | inactive: 15.2%
12 | CCCC#Cc1ccc([C@H]2[C@@H](CO)N3CCCCN(S(=O)(=O)c4ccccc4C)C[C@H]23)cc1 | inconclusive: 95.3%
13 | C/C=C/c1ccc2c(c1)O[C@H](CN(C)Cc1ccncc1)[C@@H](C)CN([C@H](C)CO)S2(=O)=O | inconclusive: 97.8%
14 | CC(C)CC#Cc1ccc2c(c1)O[C@H](CN(C)C(=O)c1ccccc1F)[C@@H](C)CN([C@@H](C)CO)S2(=O)=O | inconclusive: 95.4%
15 | O=C(c1cccc(F)c1)N1CCCCN2[C@H](CO)[C@@H](c3ccc(-c4ccccc4)cc3)[C@@H]2C1 | inconclusive: 97.4%
16 | OC[C@@H]1[C@H](c2ccc(/C=C/c3ccccc3)cc2)[C@@H]2CN(Cc3ccncc3)CCCCN12 | inconclusive: 95.4%
17 | COc1ccccc1S(=O)(=O)N(C)C[C@H]1Oc2cc(/C=C/c3ccccc3)ccc2S(=O)(=O)N([C@@H](C)CO)C[C@H]1C | inconclusive: 95.7%
18 | C[C@@H]1CCCCO[C@@H](CN(C)CC2CCCCC2)[C@H](C)CN([C@H](C)CO)C(=O)c2cc(NC(=O)c3ccccc3)ccc2O1 | inconclusive: 97%
19 | Cc1ccccc1-c1ccc([C@@H]2[C@H](CO)N3CCCCN(C(=O)Nc4ccc(F)cc4)C[C@@H]23)cc1 | active: 107%
20 | CC(C)CC#Cc1ccc2c(c1)O[C@@H](CN(C)C(=O)c1ccccc1)[C@H](C)CN([C@@H](C)CO)S2(=O)=O | inactive: 57.3%
21 | C[C@H](CO)N1C[C@H](C)[C@@H](CN(C)Cc2ccccc2)Oc2cc(-c3cncnc3)ccc2S1(=O)=O | inconclusive: 95.9%
22 | O=C(Nc1ccc(C(F)(F)F)cc1)Nc1ccc2c(c1)[C@@H]1C[C@@H](CC(=O)N3CCc4ccccc4C3)O[C@H](CO)[C@@H]1O2 | inconclusive: 96.1%
23 | O=S(=O)(Cc1ccccc1)N1CCCCN2[C@H](C1)[C@H](c1ccc(C#Cc3ccccc3)cc1)[C@@H]2CO | inconclusive: 95.7%

Row | SMILES | inhibition
24 | C[C@@H]1CN([C@H](C)CO)C(=O)c2cc(/C=C/c3ccccc3)cnc2O[C@H]1CN(C)Cc1ccc2c(c1)OCO2 | inconclusive: 98.3%
25 | CN(C)C(=O)c1ccc(-c2ccc([C@@H]3[C@H](CO)N4CCCCN(C(=O)C5CCC5)C[C@@H]34)cc2)cc1 | inconclusive: 99.6%
26 | C[C@@H]1CN([C@@H](C)CO)C(=O)c2cc(C#Cc3ccccc3F)cnc2O[C@@H]1CN(C)S(=O)(=O)c1ccccc1F | inactive: 80.2%
27 | COc1ccc(NC(=O)Nc2ccc3c(c2)C(=O)N([C@@H](C)CO)C[C@H](C)[C@H](CN(C)Cc2ccc4c(c2)OCO4)OCCCC[C@H](C)O3)cc1 | active: 103%
28 | Cc1ccc(S(=O)(=O)N(C)C[C@@H]2Oc3cc(-c4cccc(F)c4)ccc3S(=O)(=O)N([C@H](C)CO)C[C@@H]2C)cc1 | inconclusive: 96.4%
29 | CN1c2ccc(-c3ccc(C#N)cc3)cc2[C@@H]2[C@@H](CCN2C(=O)CC2CC2)[C@@H]1CO | inconclusive: 97.5%
30 | CC(C)C#Cc1ccc([C@H]2[C@H]3CN(S(=O)(=O)Cc4ccccc4)CCCCN3[C@H]2CO)cc1 | inactive: 45.8%
31 | C[C@H](CO)N1C[C@H](C)[C@@H](CN(C)C(=O)Nc2cccc3ccccc23)OCCCC[C@H](C)Oc2ccc(NS(=O)(=O)c3ccc(F)cc3)cc2C1=O | inconclusive: 98.3%
32 | CCc1cnc(N2[C@H](C#N)[C@H](c3ccc(C4=CCCC4)cc3)[C@@H]2CO)s1 | inconclusive: 95.5%
33 | CN1C(=O)c2cc(NC(=O)c3ccc(F)c(F)c3)ccc2OC[C@H]2O[C@@H](CC(=O)N[C@@H]3CCN(Cc4ccccc4)C3)CC[C@@H]21 | inactive: 74%
34 | COc1ccc(S(=O)(=O)Nc2ccc3c(c2)C(=O)N([C@H](C)CO)C[C@@H](C)[C@H](CN(C)S(=O)(=O)c2ccc(OC)cc2)OCCCC[C@@H](C)O3)cc1 | inactive: 62.5%
35 | Cc1ccc(-c2ccc3c(c2)O[C@H](CN(C)Cc2ccc(F)cc2)[C@H](C)CN([C@@H](C)CO)S3(=O)=O)cc1 | inconclusive: 96.8%
36 | C[C@@H]1CN([C@@H](C)CO)C(=O)c2cc(NS(=O)(=O)c3ccc(Cl)cc3)ccc2O[C@@H](C)CCCCO[C@@H]1CN(C)C(=O)Nc1cccc2ccccc12 | inconclusive: 95.7%
37 | CC(C)CC#Cc1ccc2c(c1)O[C@@H](CN(C)Cc1ccccc1)[C@H](C)CN([C@@H](C)CO)S2(=O)=O | inconclusive: 95.2%
38 | C[C@@H]1CN([C@@H](C)CO)C(=O)c2cc(NC(=O)Cc3cn(C)c4ccccc34)ccc2O[C@@H]1CN(C)Cc1ccc(Oc2ccccc2)cc1 | inconclusive: 101%
39 | CCN1[C@H](C(=O)NCc2ccc(F)cc2)[C@@H](CO)[C@@H]2Cn3c(ccc(-c4ccccc4OC)c3=O)[C@@H]21 | inactive: 18.4%
40 | COc1ccc(S(=O)(=O)N(C)C[C@H]2Oc3cc(C#CC4CC4)ccc3S(=O)(=O)N([C@@H](C)CO)C[C@H]2C)cc1 | inconclusive: 95.8%
41 | C[C@@H]1CCCCO[C@@H](CN(C)Cc2ccccc2)[C@@H](C)CN([C@H](C)CO)C(=O)c2cc(NC(=O)Nc3ccc(C(F)(F)F)cc3)ccc2O1 | active: 115%
42 | Cc1ccccc1-c1ccc([C@H]2[C@H](CO)N3CCCCN(S(=O)(=O)c4ccc(F)cc4)C[C@@H]23)cc1 | active: 110%
43 | OC[C@H]1[C@@H](c2ccc(C#Cc3cccnc3)cc2)[C@@H]2CN(Cc3ccccc3F)CCCCN12 | inconclusive: 95.2%
44 | CCCC#Cc1ccc([C@H]2[C@H](CO)N3CCCCN(C(=O)NC4CCCC4)C[C@@H]23)cc1 | inconclusive: 95.9%
45 | C[C@H]1CN([C@@H](C)CO)C(=O)c2cc(NC(=O)Cc3cn(C)c4ccccc34)ccc2O[C@@H]1CN(C)Cc1ccncc1 | inactive: -25.2%

From PubChem BioAssay AID651740 (Broad Institute, 2012)
